# The list shows a part of the results.
# Molecular target: T1, OsWOX13 (Oryza sativa, UniProt Q5QMM3 1-267)
# T1 sequence: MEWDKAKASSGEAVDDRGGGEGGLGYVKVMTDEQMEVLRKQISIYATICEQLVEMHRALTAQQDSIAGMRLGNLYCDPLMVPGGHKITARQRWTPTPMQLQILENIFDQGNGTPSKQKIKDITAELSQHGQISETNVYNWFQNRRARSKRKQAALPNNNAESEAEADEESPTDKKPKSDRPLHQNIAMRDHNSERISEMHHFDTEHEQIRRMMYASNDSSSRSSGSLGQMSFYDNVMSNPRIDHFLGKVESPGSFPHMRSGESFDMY
# Assay: protein-binding microarray (RPBM); PBS, 2% BSA, 51.3 ng/ul salmon testes DNA, 50 uM zinc acetate, 200 nM TF, 25 C, 1 h; high values mean tight binding
# Settings: protein: recombinant; tags: N-terminal polyhistidine and DsRed monomer fusion (pET32a); label: CyDye5-dUTP incorporated in the synthesized complementary strand; 3' TTTTT single-stranded linker to array surface; dsDNA, one strand shown
# Method in brief: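 A custom Agilent array was converted to double-stranded form by primer extension with Cy5-dUTP and blocked with 2% BSA. Protein at 200 nM in PBS with 2% BSA, salmon testes DNA and 50 µM zinc acetate was applied for 1 h at 25 °C, followed by washing. The proteins were polyhistidine–DsRed N-terminal fusions of transcription factors, expressed in E. coli BL21-CodonPlus and Ni–NTA-purified. The binding signal is per-feature fluorescence intensity (arbitrary units) from an Axon 4000B scanner.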
row,Sequence,binding signal
1,AACAACTTATGACCATGTCAATCTATATAGTTAGAAGTTGCGGAGTCACCTAGTGCAG,3670 fluorescence intensity (a.u.)
2,CCCAATAATAAAATTTGCATATATTGTCACGTGTCACATGCGGAGTCACCTAGTGCAG,5760 fluorescence intensity (a.u.)
3,ATAATTATTATAATATAAGTTAAATTTTATTTGTTAAAATCGGAGTCACCTAGTGCAG,5350 fluorescence intensity (a.u.)
4,AAATCCCCAATTAATTGATGATTAATTGTGAGCTTAATATCGGAGTCACCTAGTGCAG,47900 fluorescence intensity (a.u.)
5,GCATATTTAATTTGTTATTCTCCATTTATATTTCCTCAATCGGAGTCACCTAGTGCAG,7150 fluorescence intensity (a.u.)
6,ACTTATCTGTGATTTGTTAATCTTCTGTTAAACAATTTGCCGGAGTCACCTAGTGCAG,21000 fluorescence intensity (a.u.)
7,ATTGATAGAGAGAGAGGCGGACCTCCCTGACCTTATCGGCCGGAGTCACCTAGTGCAG,11300 fluorescence intensity (a.u.)
8,AAGATTGCTTTGAGATTAGTGTTAGACTAGGGCCGTGTTTCGGAGTCACCTAGTGCAG,24700 fluorescence intensity (a.u.)
9,GCCAAACCTGATTTGAGCTACGGACCAAAGTTAGCTTGCCCGGAGTCACCTAGTGCAG,3960 fluorescence intensity (a.u.)
10,AAGTAAATCAACGTCCGTGATCTGCGCACGTCACCGGCTTCGGAGTCACCTAGTGCAG,5340 fluorescence intensity (a.u.)
11,CAGCCACCAATTAATCTCTGAGTCCTTATTAACGAATAACCGGAGTCACCTAGTGCAG,3600 fluorescence intensity (a.u.)
12,AGTATGTAATAATTAAAACTCAATCAATCAAATGTTAATACGGAGTCACCTAGTGCAG,14400 fluorescence intensity (a.u.)
13,TAATTAATTAAATTTTAACTATTGCAAACTTAACAAATGTCGGAGTCACCTAGTGCAG,49700 fluorescence intensity (a.u.)
14,AAAGGGTAAATTGGAACCATGCCATTATAATTTTGCAAAGCGGAGTCACCTAGTGCAG,9510 fluorescence intensity (a.u.)
15,CTTAGTGATTGCACTTATCATTGACGGTCCTGCGGTAATCCGGAGTCACCTAGTGCAG,19100 fluorescence intensity (a.u.)
16,ATATGATTATAGCTAACTTAGCTATTAGATCAGCTATAAACGGAGTCACCTAGTGCAG,6190 fluorescence intensity (a.u.)
17,CTTATTTCCAATTAATGATCCTTCCGCTTATGTTTTCACACGGAGTCACCTAGTGCAG,8500 fluorescence intensity (a.u.)
18,CTTCAGTCATTTTCCATCACATCAACCTGTCATACACACACGGAGTCACCTAGTGCAG,6110 fluorescence intensity (a.u.)
19,TTCGTGATTTATATAAAACATTCCCATGTTGAAACCCTAACGGAGTCACCTAGTGCAG,15400 fluorescence intensity (a.u.)
20,AAAATTACAGGATTTAAATTCTAGTGGAAATTTGTTTTATCGGAGTCACCTAGTGCAG,5530 fluorescence intensity (a.u.)
21,AGCTGCATATATTGATTGACAGGTGTACCGATTCCTTATGCGGAGTCACCTAGTGCAG,54400 fluorescence intensity (a.u.)

row,Sequence,binding signal
1,ACAAGCAAATTATTTAATGAGATTTTATCTAGCTCAATTTCGGAGTCACCTAGTGCAG,9560 fluorescence intensity (a.u.)
2,TCCTGACAGAGCAATGAAACGCGGCGGAGGCATTTCGTCGCGGAGTCACCTAGTGCAG,5210 fluorescence intensity (a.u.)
3,TTTTCTGTTCCTGATTAGCGGCGGAGTGTGCCGTCCTCGCCGGAGTCACCTAGTGCAG,6290 fluorescence intensity (a.u.)
4,GAGAGAAAACATTGATTTTAATTGCGGCTCATTTAGAGGCCGGAGTCACCTAGTGCAG,10000 fluorescence intensity (a.u.)
5,GCTGCTGATTTCGTCTCTTTGATCGTGTGTTAGGAGACGCCGGAGTCACCTAGTGCAG,5180 fluorescence intensity (a.u.)
6,CATCAGTGATAGGCATTTCAATTTAGAGAAAATACAACAACGGAGTCACCTAGTGCAG,13900 fluorescence intensity (a.u.)
7,ACTTCTATAATATATGTAAATTACCTTTTGGCTTTGCTGACGGAGTCACCTAGTGCAG,4500 fluorescence intensity (a.u.)
8,AAAATCTAACAATAATTGATTAAAATAGCCTTTACCTGAACGGAGTCACCTAGTGCAG,31000 fluorescence intensity (a.u.)
9,ATAAATCTGCCCACCATTTTCTCCCGCTCCAAATGCCCAACGGAGTCACCTAGTGCAG,3210 fluorescence intensity (a.u.)
10,CCTGATTTTCCATTCCCACAATCCCACTGTCCTGACGAGTCGGAGTCACCTAGTGCAG,27200 fluorescence intensity (a.u.)
11,AAATGTGATTTTATATTCCCTTTTGTATAAATTTGCAACACGGAGTCACCTAGTGCAG,6280 fluorescence intensity (a.u.)
12,AAATAGTTAATACTTAATTAATCATGCAATAATACAAGTTCGGAGTCACCTAGTGCAG,6900 fluorescence intensity (a.u.)
13,CAGACTATGCAATCACACACTGAATTGCTCCTCTTTCTTTCGGAGTCACCTAGTGCAG,8990 fluorescence intensity (a.u.)
14,AGATGATAGATCAGAGTGAACATATTTGGACCATTAGATGCGGAGTCACCTAGTGCAG,6720 fluorescence intensity (a.u.)
15,AATATGATAATCAAATTTAAATAGAGGAAGCAACCCTTTTCGGAGTCACCTAGTGCAG,4330 fluorescence intensity (a.u.)
16,GACCCACTTCAATTAATCGACTAAATTTCAGTTTTCCAAGCGGAGTCACCTAGTGCAG,15400 fluorescence intensity (a.u.)
17,CATGACATCGTCATTGACCGTGTCATCGTCAAGATGGATGCGGAGTCACCTAGTGCAG,4420 fluorescence intensity (a.u.)
18,GCTGAAATTGCAGATGACCTGATGAACTTCTCCTCTGAAGCGGAGTCACCTAGTGCAG,5930 fluorescence intensity (a.u.)
19,GCATCGTGAAGCCAATCAATTTAAATTTCTCATCTCGTCACGGAGTCACCTAGTGCAG,20800 fluorescence intensity (a.u.)
20,ATGTGATTGCGCTCCGAGTTCTGCACTTACGCGAACAGTGCGGAGTCACCTAGTGCAG,41500 fluorescence intensity (a.u.)
21,TTAATTTGTATACGAAACTGATATGTGGGCCCCACGGGGTCGGAGTCACCTAGTGCAG,14000 fluorescence intensity (a.u.)
